Inconclusive means that the source gave no clear call. Such entries were picked first, then a sample of the others. Potencies of inconclusive entries are left out as doubtful fits. Active and inactive are the calls of the source. Calls come from the whole dose curve; as a rule, active = well fitted inhibition curve with a large enough effect in the repeat runs; inconclusive = weak or mixed curves; inactive = no such curve, though single readings can be large or run the other way.
molecular target: Cytochrome P450 2C9 (Homo sapiens) (UniProt P11712); assay: Cytochrome P450 family 2 subfamily C member 9 (CYP2C9) small molecule antagonists: luciferase biochemical (cell-free) qHTS assay (AID 1645842); settings: P450-Glo CYP2C9 enzyme assay, luciferin luminescence; series mostly up to 57.4 µM; note: nearly all actives have a fitted effect of over 55% in size
How it was run: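 Luminescence, after 20 min with luciferin detection reagent, reflected CYP2C9 turnover during a 1 h NADPH-driven reaction at 37C. Enzyme-substrate mix contained 0.4% bovine serum albumin and was preincubated with compound 10 min at room temperature.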
Potency is the fitted concentration of half-maximal effect; tags give direction and shape of the fitted curve.

UniProt P11712, sequence (P11712 whole entry, looked up): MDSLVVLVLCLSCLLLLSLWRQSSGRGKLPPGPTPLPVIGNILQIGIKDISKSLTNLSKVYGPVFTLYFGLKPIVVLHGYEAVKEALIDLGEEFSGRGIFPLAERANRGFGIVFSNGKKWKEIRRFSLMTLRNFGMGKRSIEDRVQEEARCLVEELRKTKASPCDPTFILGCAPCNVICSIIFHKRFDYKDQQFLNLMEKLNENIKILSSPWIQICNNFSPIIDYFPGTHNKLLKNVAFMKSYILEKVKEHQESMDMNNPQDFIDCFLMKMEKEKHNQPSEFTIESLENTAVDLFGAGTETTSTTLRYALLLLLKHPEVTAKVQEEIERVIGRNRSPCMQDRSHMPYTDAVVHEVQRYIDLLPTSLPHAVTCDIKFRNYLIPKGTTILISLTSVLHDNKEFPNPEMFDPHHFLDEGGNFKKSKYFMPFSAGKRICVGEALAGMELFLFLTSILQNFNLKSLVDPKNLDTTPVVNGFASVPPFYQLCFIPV

Row | Structure (SMILES) | Potency
1 | CCCCn1c(=O)n(Cc2ccccc2F)c(=O)c2[nH]c(Cc3ccc(NC(C)=O)cc3)nc21 | active: 6.01 µM
2 | CC1(COc2ccc3c(c2)ncn3-c2ccc3cccc(N4CCC(N)CC4)c3n2)COC1 | inconclusive [inhibitor, partial curve]
3 | CC1(C)CC(=O)c2c(C(F)(F)F)nn(-c3ccc(C(N)=O)c(NC4CCC(OC(=O)CN)CC4)c3)c2C1 (stereo unspecified) | active: 2.68 µM
4 | FC(F)c1nc2ccccc2n1-c1nc(N2CCOCC2)nc(N2CCOCC2)n1 | active: 1.69 µM
5 | C=CCn1c(=O)c2cnc(Nc3ccc(N4CCN(C)CC4)cc3)nc2n1-c1cccc(C(C)(C)O)n1 | inconclusive [inhibitor, single point]
6 | CCC(C)(C)c1ccc(CC(C)CN2C[C@@H](C)O[C@@H](C)C2)cc1 (stereo partly specified) | inconclusive [inhibitor, partial curve]
